# Data as given in the RNAGym collection of RNA variant scans (doi:10.7554/elife.90254).
# The source gives no read counts; variants with many changes may rest on few reads.
# B1: LINE1-mini (parent)
# chain: GGCAGAGCUCAACACAGCGUGGCAAAGUGGCUGUGGCUAGACUGCC
# Variants of: B1
# Assay: self-cleavage, relative activity (ratio to wild type); higher = more cleavage; in vitro, sequencing; the parent is a self-cleaving ribozyme
row,Variant,self-cleavage
1,A11U A26U G30U G33A U34C C46U,0.03
2,A11U A26U U34G,0.04
3,A11U A39G C46A,0.06
4,A11U A41C U43G,0
5,A11U A41G G44U,0
6,A11U C13A A16G C42U U43A C45U,0.01
7,A11U C13A A39C,0.03
8,A11U C13A C15A C18G A26C C46A,0.02
9,A11U C13A C18G G22U,0
10,A11U C13A G30U U34A,0.04
11,A11U C13G A14G,0.01
12,A11U C13G A14U C18G G19C U38A,0
13,A11U C13G A25C G27A,0
14,A11U C13G C15A A24U,0
15,A11U C13U C15G A41G,0.01
16,A11U C13U C15U,0.02
17,A11U C13U C23U C42A C45G,0.02
18,A11U C13U G19A,0.02
19,A11U C13U G19C,0
20,A11U C13U G36C,0.09
21,A11U C13U G40C A41G,0.02
22,A11U C13U U43A,0.07
23,A11U C15A A26C C31G,0.01
24,A11U C15A U20C A24U G27U,0.01

row,Variant,self-cleavage
1,A11U C15A U34C G35A,0.01
2,A11U C15G C37G,0
3,A11U C15G G21A A26U G29C G35A C46G,0.01
4,A11U C15G G35U C42U C46G,0
5,A11U C15G U28G G40U,0.01
6,A11U C15U C18A C31G,0
7,A11U C15U C31A C42U,0
8,A11U C15U C31A G40C C46U,0.01
9,A11U C15U G19A,0.03
10,A11U C15U U43C,0.02
11,A11U C18A C37G,0.02
12,A11U C18G A25U,0.04
13,A11U C18G A26G,0.09
14,A11U C18G C37U A41C,0
15,A11U C18G C46G,0.05
16,A11U C18G G19C G21U G22U,0.1
17,A11U C18G G29U,0.06
18,A11U C18U A24C C31A G44U C45A,0.01
19,A11U C18U A24U,0.05
20,A11U C18U C46A,0.09
21,A11U C18U U20C U34G U38C U43G,0
22,A11U C18U U20G,0.04
23,A11U C18U U20G U34G,0
24,A11U C18U U28A C45G,0.12

row,Variant,self-cleavage
1,A11U C23A A26G G30A,0.53
2,A11U C23A A26G U34A C42G,0.01
3,A11U C23A A26U,0.06
4,A11U C23A C31G,0.01
5,A11U C23A G44C C46U,0.02
6,A11U C23G G27C G40C,0
7,A11U C23G G30U C42U,0.01
8,A11U C23U A24C G29U,0.02
9,A11U C23U A24G C31U,0.06
10,A11U C23U A39G,0.07
11,A11U C23U G30U,0.05
12,A11U C23U G35U,0.01
13,A11U C23U U28G,0.11
14,A11U C23U U28G A39C,0
15,A11U C31A G40U C42U U43A,0.03
16,A11U C31A U32A U34G C42U,0.01
17,A11U C31A U34G U43C C46U,0
18,A11U C31G G33A U43C,0.01
19,A11U C37A G40A,0.14
20,A11U C37A G44A,0.01
21,A11U C37G G40C,0.02
22,A11U C42A C45A,0.02
23,A11U C42A U43A C45U C46U,0
24,A11U C42U C46U,0

row,Variant,self-cleavage
1,A11U G17A C23U,0
2,A11U G17A C31A C42U,0.02
3,A11U G17A G19A A26C,0.08
4,A11U G17A G27A,0.08
5,A11U G17A G29U G30C,0.03
6,A11U G17C A24G C31U C45G,0
7,A11U G17C G19A,0.18
8,A11U G17C G22C C45G,0.01
9,A11U G17C G22U G29C G33U C42A,0.02
10,A11U G17C G29U,0.02
11,A11U G17C G35A U38A,0.03
12,A11U G17U C18A U38A A39U,0.07
13,A11U G17U G19A C31U,0.27
14,A11U G17U G19U C45A,0.04
15,A11U G17U G19U G22A G29C G30A G40A G44U,0.01
16,A11U G17U G27A U34A,0.03
17,A11U G17U U20A U34G G35C C37A,0.02
18,A11U G19A C37U,0.03
19,A11U G19A C46A,0.12
20,A11U G19A G21A A39G,0.26
21,A11U G19A G27U,0.1
22,A11U G19C G27C,0.01
23,A11U G19U A41U,0.02
24,A11U G19U G22U U32A U38G,0.01

row,Variant,self-cleavage
1,A11U G19U G36U,0.02
2,A11U G19U U38C U43G,0
3,A11U G21A C23A,0.53
4,A11U G21A U38A C45U,0.04
5,A11U G21C C31A,0.03
6,A11U G21C C31G G33C,0.03
7,A11U G21C G22C A26C G30A G44U,0.02
8,A11U G21C G44C C45G,0.02
9,A11U G21U G27A A39U,0
10,A11U G21U U28A G35C,0.03
11,A11U G22A A41C,0.01
12,A11U G22A C46A,0.35
13,A11U G22C A24C G33U G35U C42G,0
14,A11U G22C G33A,0.03
15,A11U G22U A25G G33U C45A,0.04
16,A11U G22U A25U U28A G36C C37G C45U,0
17,A11U G22U G35C C46A,0.03
18,A11U G22U G36C A39U U43G,0.02
19,A11U G22U G36U,0
20,A11U G27A C37U,0.01
21,A11U G27A G29A,0.22
22,A11U G27U C31G G35U,0
23,A11U G27U G30A,0.28
24,A11U G29C C45U,0.13

row,Variant,self-cleavage
1,A11U G29U C42G,0
2,A11U G29U G35A G36U G44C,0.01
3,A11U G29U G35U G36U,0.07
4,A11U G29U G44C,0.08
5,A11U G29U U32A U34C G36C C37U U38G,0
6,A11U G30A C37A U38G C46A,0.01
7,A11U G30A G36A C37G G44U,0.01
8,A11U G30U G35A G36U C45A,0.02
9,A11U G30U U38C,0.04
10,A11U G33A A39G,0.01
11,A11U G33A C42G,0.02
12,A11U G33A G36C C42U,0.02
13,A11U G33A U34C,0.02
14,A11U G33C C37U U38G,0.01
15,A11U G33U A41U G44U,0
16,A11U G33U C46A,0.02
17,A11U G33U U34A,0.04
18,A11U G35C A39G A41C,0
19,A11U G35C G36A,0
20,A11U G35C G44A,0.04
21,A11U G35C G44U,0.04
22,A11U G35U C37A G40C A41U C45A,0.03
23,A11U G36A C46A,0.02
24,A11U G36A G40A,0.01

row,Variant,self-cleavage
1,A11U G40A U43G,0.02
2,A11U G40C C45U,0.02
3,A11U U20A C42U C45U,0.04
4,A11U U20A G27U,0.06
5,A11U U20C A26C G27A C37G,0
6,A11U U20C A26U G35A U43C,0.01
7,A11U U20C A39G,0.03
8,A11U U20C U28C U38A,0.01
9,A11U U20G G27U A41G,0
10,A11U U28G G44A,0.02
11,A11U U28G U34G G44U,0
12,A11U U32A C37G C45U,0
13,A11U U32A G40C,0.02
14,A11U U32C G40C,0.02
15,A11U U34A A39U G44C,0.01
16,A11U U34A C37A U38A A41U C45A,0.01
17,A11U U34G A41G C45G,0.01
18,A11U U34G C42G,0
19,A11U U34G G40U,0.01
20,A11U U38G C42G,0
21,A11U U43A C46U,0.02
22,A12C A14C A41C C46U,0.01
23,A12C A14C G17C G27U,0.02
